# Measured values: the supplement of paper PMC10126150
# Values marked as one replicate rest on one cluster of the flow cell; about a third of the high ones do not repeat.
# Tested on: ATP
# Test: switch fluorescence ratio, 500 uM ATP over buffer (Cy3 cluster intensity, sum of 5 cycles each) (fold (ratio)); higher = stronger signal-on switching upon ATP binding; sequences stand for … in TCGTCGGCAGCGTCAGATGTGTATAAGAGACAGTTTTTTTTTTTTTTTTTTTTTTTTT…TC
# Conditions: aptamer strand: ATP DNA aptamer (quencher-CACCTGGGGGAGTATTGCGGAGGAAGG + anchor), 100 nM annealed; ATP concentration: 500 uM; one replicate
# Procedure, shortened: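 For every switch-domain sequence, the fluorescence ratio is the mean of per-cluster values, each being summed target-cycle Cy3 intensity over summed buffer-cycle Cy3 intensity. Clusters outside 100-1000 RFU were excluded. On a modified Illumina MiSeq flow-cell, the Cy3-labelled switching-strand clusters were annealed to 100 nM quencher-labelled ATP aptamer, imaged in selection buffer and then after 15 min with 500 uM ATP at 22 °C. Five such cycles were run, with NaOH stripping and re-annealing between them.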
# 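Further: ATP exposure 15 min at 22 °C before imaging.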
row,Sequence,switch fluorescence ratio
1,AGGGGTT,1.02
2,TAGGCCTGCC,1.01
3,AATGTCAATT,0.997
4,GTGAAAGGAT,1.02
5,TGAGCTGTCA,0.957
6,GTCATTTCGA,0.986
7,CATGCCATTT,0.989
8,AAGTGCGGAG,0.994
9,GCTTTATGTG,0.991
10,TTTAGGCGGA,1.04
11,TATCATAGTC,1.02
12,CTCACCCCAG,2.64
13,TCAAGTGGTT,0.999
14,CCTACACGAT,4.77
15,TAGCCATTAG,0.94
16,TTTGCACTGA,0.982
17,GTTGTTCCTT,0.997
18,GAGCCTGAGC,1.09
19,TGGAAATCT,1.07
20,CCTGGGTGAG,1.19
21,TGAAACGGTC,1.14
22,TAACTCCTCA,1.03
23,CGGGACACTT,1

row,Sequence,switch fluorescence ratio
1,GTGTATATTA,0.993
2,ACGGGAACG,1.05
3,TATTAGTCC,1.03
4,TTAGCTTTGG,0.967
5,TCGCAGCTCG,1.09
6,CAGGGACCGT,1.02
7,GAAAGGTAGC,1.02
8,TAAGACGGA,1.04
9,ATTTGGAG,0.989
10,CAATGGTTCG,1.01
11,TAGCCTTCGG,1.01
12,TATGATGAGC,1.07
13,CTCTTCTTGG,0.965
14,GTATGTGCAG,1.03
15,AGGTAAGAAA,1.01
16,CGTAAACTGT,0.977
17,CTCTGCACGG,3.96
18,TCACGCCCAG,1.1
19,TCGCACTCTC,3.91
20,AAATGCGCAT,0.984
21,AGTGGCCTCC,1.03
22,GTAGCGGGG,0.997
23,ATCTCTATGC,0.963

row,Sequence,switch fluorescence ratio
1,CACGCCGTCA,1
2,GAGGCGGGGT,1.02
3,ATAACAGCTG,1.03
4,TAATACGAAC,1.46
5,CAAACACCT,1.38
6,CTCGTCGGGA,1
7,GACTACGTCT,0.937
8,GCACACCGCG,1.11
9,TATGACTGCG,0.984
10,AAACCATGGG,1
11,TCGCTTGTTT,0.985
12,ATTACATCAT,0.948
13,AGGGAAGAGT,0.961
14,GTGGTCAGGA,1.07
15,AGATTACACG,1.01
16,CAGTCCTCCT,1.15
17,AGGTGTCCCG,0.948
18,GATGAGAAC,0.987
19,TGACATGACC,1.08
20,AATTCCCA,1.01
21,TCATTACCG,1.01
22,TTCTACCCAC,1.57
23,TTGATGAGGG,0.927

row,Sequence,switch fluorescence ratio
1,TATCTATGGA,1.01
2,TCCTGCGTGC,2.62
3,TCAGTACGCC,1.05
4,AAGAAAGCAA,0.923
5,GTGAACAAAG,0.971
6,TAGTGGTT,1.03
7,CCCCGTCTGT,1.43
8,TGACATTGCA,0.986
9,AAAGCGGCT,1
10,TAGCGTGGCA,1.05
11,ACAGGCTTCC,2.2
12,CAAATTCATT,1.04
13,TCGGCCTCGG,1
14,TTAGCGATGT,1.07
15,TGAAACTTT,1.02
16,GCATTTTATC,1.02
17,GATGTATTCA,1.05
18,GCAGGGAGAC,1.11
19,CGCGCCCCAA,1.21
20,TACTGTCTAA,1.03
21,AGCGCTCCAA,1.07
22,ACGAGATAAG,1.04
23,AGCTTGTTAA,0.986

row,Sequence,switch fluorescence ratio
1,TAAGTTCGGA,1.01
2,ATTATTTTTG,1.04
3,CAGAAGACGT,1.05
4,AATAGTTTGT,0.976
5,TTACGCCATA,1.08
6,ACGTAGGAGT,1.07
7,ACCAGAGTGG,1.06
8,GAGCGGAGGA,1.05
9,AGCCTCTAAC,0.996
10,CACTGTCTTT,1.01
11,ACGAGAGGTT,1.03
12,GAAGCGTTCC,2.98
13,TATTAATCTG,0.957
14,TATGACGGCC,1.01
15,AGACAAGGAC,1.07
16,GCGTACGCGT,0.969
17,TATTCCTGCA,1.11
18,TTAAGGCGAG,0.967
19,ACTATTGTCG,0.992
20,TGGGCGCGGG,1.1
21,TGTTCCATGT,0.953
22,AGTAATGTCC,1.02
23,AAGACGCGGC,1.15

row,Sequence,switch fluorescence ratio
1,TAGTTTACAA,1.02
2,TGTGCAGGGA,1.03
3,GTTGGTCGCG,0.991
4,GTCCCTCGGA,0.952
5,CAGTCTTATA,1.01
6,TGATTAACAG,0.99
7,GAATCATAT,1.02
8,GCGTAGGGGC,0.938
9,AGAGTCACTC,1.03
10,TATCATCATT,1.01
11,ATAAGGATTT,1.02
12,AAAAGCCTAA,1.04
13,GCACGGAGTT,1.01
14,TAGTCAACGA,1.03
15,TGCCGCCCGT,1.16
16,GCACGCGAGG,1.06
17,GCTTAAAACA,0.971
18,GGCGTGATGA,1.03
19,CAGCGGAATT,1
20,CTTTGGTGGG,1.02
21,TGTTCAATAA,1.01
22,ATATTGTGAT,0.99
23,TACTAGCGAG,0.988

row,Sequence,switch fluorescence ratio
1,TAGGACGATG,0.997
2,TTGGTAGAAC,1
3,GGGGACCCGA,1
4,ACTTATTTTC,1.02
5,AAACTAAGTA,1.01
6,TATGGTTCAG,0.951
7,TCAAGTACGT,1.29
8,ATCTTGTCAG,1
9,TATTAAAGC,1.02
10,ACTATGGAAG,0.975
11,CGTGGCGGAC,1.07
12,GCTTACTACT,1.1
13,ATTACGGGCC,0.996
14,CTAACATTAC,1.53
15,AATCCATTCA,1.07
16,TGCATACGCA,1.05
17,GCCGAAAGAA,1.28
18,GTTTTGGTTC,0.989
19,TTGTAACTAC,2.45
